# Results reported in PubChem BioAssay AID2675 (National Center for Advancing Translational Sciences (NCATS), 2010).
# Among all 280,000 compounds or so, about 100 (0.036%) were called active. Inconclusive means that the source gave no clear call. Such entries were picked first, then a sample of the others. The call rests on the fitted dose curve; in most records, active means well fitted inhibition curve with a large enough effect in the signal ratio, with a control signal flat (not every such curve was filed as active); inconclusive means small, poorly fitted or top-dose-only effect, or effect the other way, or a change in a side signal; inactive means no such curve, though single readings can be large or run the other way; the % refers to the signal ratio. Potencies beside an inconclusive call are fits to weak or partial responses and may not hold up. A note “side channel” means that the fit belongs to a control or component signal, not to the main read-out.
# Target: Muscleblind-like protein 1 (Homo sapiens) (UniProt Q9NR56)
# UniProt Q9NR56, sequence (Q9NR56 whole entry, looked up): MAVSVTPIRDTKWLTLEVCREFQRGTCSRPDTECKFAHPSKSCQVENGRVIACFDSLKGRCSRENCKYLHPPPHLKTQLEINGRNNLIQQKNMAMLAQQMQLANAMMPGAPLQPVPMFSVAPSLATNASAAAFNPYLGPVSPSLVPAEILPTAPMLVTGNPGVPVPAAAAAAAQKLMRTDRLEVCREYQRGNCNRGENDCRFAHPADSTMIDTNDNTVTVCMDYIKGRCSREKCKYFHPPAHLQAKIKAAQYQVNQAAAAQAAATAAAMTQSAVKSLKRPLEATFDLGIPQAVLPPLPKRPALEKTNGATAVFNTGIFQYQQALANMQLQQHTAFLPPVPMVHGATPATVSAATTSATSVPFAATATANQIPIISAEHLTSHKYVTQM
# Assay: qHTS Assay for Inhibitors of MBNL1-poly(CUG) RNA binding
# Settings: TR-FRET MBNL1-His/biotin-(CUG)12 binding, 665/545 ratio; activity change, negative = inhibition: at 57.5 µM (top of the series)
# In short: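 Ratiometric TR-FRET (665 over 545 nm, excitation 340 nm) tracks disruption of MBNL1-His/biotin-(CUG)12 complex after 60 min at room temperature, with compounds at 92 nM to 58 uM final.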
# On the % scale 0 is the no-effect control and ±100 the full control effect; potency means the concentration at half of the fitted maximal effect; tags describe the fitted curve by direction and shape or compound fluorescence and quenching.
Compound,Potency,"activity change, negative = inhibition"
CC(/C=C/c1ccccc1)=N\NC(=S)NC(C)C,"inconclusive: 35.5 µM [quencher, side channel, single point]",
Cc1ccccc1NC(=O)c1ccccc1NC(=O)Cc1cccc2ccccc12,"inconclusive: 0.178 µM [fluorescent, side channel, full curve, poor fit]",
COc1ccc(/C(O)=C2/C(=O)C(=O)N(c3ncccn3)C2c2ccc(OC)c(OC)c2)cc1 (stereo not given),"inconclusive: 17.8 µM [quencher, side channel, partial curve]",
COc1cccc(C2=NN(C(=O)c3ccccc3)C(O)(C(F)(F)F)C2)c1 (stereo not given),,inactive: -5.53%
CC(=O)c1ccc(N2CCN(c3ccc(S(=O)(=O)NCCN(C)C)cc3[N+](=O)[O-])CC2)cc1,"inconclusive: 10 µM [quencher, partial curve]",
CN(C)CCSc1nnc(-c2ccccc2)o1,"inconclusive: 3.16 µM [quencher, side channel, single point]",
COc1ccc(CC(=O)NCC2COc3ccccc3O2)cc1 (stereo not given),,inactive: -1.63%
O=C(/C=C/c1cn(CC(O)CN2CCOCC2)c2ccccc12)c1cccs1 (stereo not given),,inactive: 11.7%
CCOCCCNC(=O)c1cn(C)c2ccc(S(=O)(=O)N(C)C3CCCCC3)cc2c1=O,,inactive: -4.54%
CNC(=O)c1ccc(Nc2nnc(-c3ccc(C)c(S(=O)(=O)NCC4CCCO4)c3)c3ccccc23)cc1 (stereo not given),"inconclusive: 10 µM [quencher, side channel, partial curve]",
COc1ccc([N+](=O)[O-])cc1NC(=O)CSCc1ccc(Br)cc1,"inconclusive: 17.8 µM [quencher, side channel, single point]",
COc1ccc(-c2nnc(SCC(=O)Nc3ccc4c(c3)OCCO4)n2N)cc1OC,,inactive: -8.12%
CC(C)(C)NC(=O)c1ccc2c(c1)C(=O)N(Cc1ccco1)C2=O,"inconclusive: 20 µM [quencher, side channel, partial curve]",
O=C(NCCc1ccccc1)C(=S)N1CCCCC1,,inactive: -8.09%
COc1cc(/C=C2/C(=O)NN(c3cccc(C)c3)C2=O)cc([N+](=O)[O-])c1O,"inconclusive: 22.4 µM [quencher, side channel, partial curve]",
Cc1ccc(C2=NS(=O)(=O)N(C)C(C(=O)NCc3cccs3)=C2)cc1,"inconclusive: 20 µM [quencher, single point]",
O=C(O)CC(Sc1n[nH]c(=S)s1)C(=O)O (stereo not given),"inconclusive: 79.4 µM [inhibitor, partial curve]",
CN1CCN(c2ncnc3sc(-c4ccccc4)cc23)CC1,"inconclusive: 17.8 µM [quencher, side channel, partial curve]",
C[C@](N)(Cc1ccc(O)c(O)c1)C(=O)O,"inconclusive: 50.1 µM [inhibitor, single point]",
CCOC(=O)CSc1ccc(C(=O)NCCN2CCOCC2)cc1[N+](=O)[O-],"inconclusive: 7.08 µM [quencher, side channel, partial curve]",

Compound,Potency,"activity change, negative = inhibition"
O=C(O)c1ccc2c(c1)C1C=CCC1C(c1ccncc1)N2 (stereo not given),"inconclusive: 25.1 µM [quencher, side channel, partial curve]",
CC(NC(=O)/C(C#N)=C/c1ccco1)c1ccccc1 (stereo not given),,inactive: 20.6%
O=C(c1ccc(SCc2ccco2)c([N+](=O)[O-])c1)N1CCOCC1,"inconclusive: 14.1 µM [quencher, side channel, partial curve]",
CC(C)(C)NS(=O)(=O)c1ccc2nc(NC(=O)Cc3cccs3)sc2c1,"inconclusive: 0.141 µM [quencher, side channel, full curve, poor fit]",
N#Cc1ccc(-c2ccccc2)nc1SCC(=O)c1cc2ccccc2oc1=O,,inactive: 3.64%
c1cc(-c2nsc(-c3ccncc3)n2)ccn1,"inconclusive: 20 µM [quencher, side channel, single point]",
Clc1ccc(OCc2cn3ccccc3n2)c2ncccc12,"inconclusive: 28.2 µM [quencher, side channel, single point]",
O=C(Nc1cccc([N+](=O)[O-])c1)ONC1=NCCCCC1,"inconclusive: 15.8 µM [quencher, side channel, single point]",
CN(CCC#N)C(=O)COC(=O)c1c2c(nc3ccccc13)/C(=C/c1ccco1)CC2,"inconclusive: 15.8 µM [quencher, side channel, partial curve]",
COc1ccc(C(=O)c2sc(Nc3ccccc3F)nc2N)cc1,"inconclusive: 25.1 µM [quencher, side channel, partial curve]",
COc1ccccc1NS(=O)(=O)c1cccc2cccnc12,"inconclusive: 39.8 µM [quencher, side channel, single point]",
O=C(CN1C(=O)NC2(CCCc3ccccc32)C1=O)N1CCc2ccccc2C1 (stereo not given),"inconclusive: 3.98 µM [quencher, side channel, single point]",
Cc1ccc(NC(=S)Nc2cccc3cnccc23)c(C)c1,"inconclusive: 10 µM [quencher, side channel, partial curve]",
O=[N+]([O-])c1cc(S(=O)(=O)N2CCCCCC2)ccc1F,"inconclusive: 20 µM [quencher, side channel, partial curve]",
CSc1nc(C)cc(SCC(=O)Nc2ccc(Cl)cc2Cl)n1,"inconclusive: 39.8 µM [quencher, side channel, single point]",
COc1ccc(CCNC(=O)c2oc3ccc(OC)cc3c2C)cc1,,inactive: -4.15%
COc1ccc2oc(=O)c(C(=O)NCc3cccnc3)cc2c1,"inconclusive: 7.08 µM [quencher, side channel, partial curve]",
Cc1ccc(C(=O)NCCc2ccccc2)cc1,,inactive: 0.824%
COc1ccc(-c2cc(C(F)(F)F)nc(SCC(=O)Nc3sc4c(c3C#N)CCC4)n2)cc1,"inconclusive: 8.91 µM [quencher, side channel, single point]",
CCOC(=O)c1c(C)n(C)c2ccc(OCC(O)CN3C(=O)c4ccccc4S3(=O)=O)cc12 (stereo not given),"inconclusive: 3.98 µM [quencher, side channel, single point]",
